Reference: PubChem BioAssay AID463173 (ICCB-Longwood Screening Facility, Harvard Medical School, 2010)
Hit rate of the full screen: of about 52,000 compounds, about 4,300 (8.3%) were called active. Cut-off read from the data, not from the text of the source: active = survival mostly below about 52% (no sharp cut-off); inactive = mostly above about 56%. The list shows a part of the results.

The compounds below were run on DeltatarO mutant (assay: S. aureus survival, RN4220 and DeltatarO strains – OD600, teichoic acid synthesis inhibitors, primary screen (AID 463173)). Conditions: S. aureus RN4220 wild type/DeltatarO growth, OD600, 18 h, active compounds read low, screened at 18.75 µg/mL (by protocol).
With `Cc1ccc2c(=O)cc(C(=O)Nc3ccc(S(=O)(=O)Nc4onc(C)c4C)cc3)oc2c1` the survival was inactive: 102%.
`Cc1cccc(-n2ncc(C(=O)N3CCN(C(=O)c4ccco4)CC3)c2C2CCN(C(=O)OC(C)(C)C)CC2)c1` was tested, and the survival was inactive: 62%.
In the case of `N#Cc1ccccc1NC(=O)Nc1ccccc1`, the survival is reported as inactive: 116%.
For `COC(=O)c1c(NC(=O)c2nc(SCc3ccc(C)cc3)ncc2Cl)sc2c1CCCC2`, the survival was active: 46%.
In the case of `CCNc1nc(NCC)nc(N(C#N)CC)n1`, the survival is reported as inactive: 62%.
With `CCCCCNS(=O)(=O)c1ccc(N2CCCCS2(=O)=O)cc1` the survival was inactive: 77%.
For `Cc1nn(CC(=O)O)c(C)c1C`, the survival was inactive: 81%.
For `COc1ccc(NC(=O)Cn2c(=O)n(CCC(=O)NCCc3ccc(OC)c(OC)c3)c(=O)c3ccccc32)cc1Cl`, the survival was inactive: 68%.
In the case of `CCCN1C(=O)CN(C2CCCCC2)C(=O)C1c1ccc(OC)c(OC)c1` (configuration not stated), the survival is reported as inactive: 75%.
With `CC(C)(C)c1ccc(C(=O)Nc2ccc(-c3nc4cc(Cl)ccc4o3)cc2)cc1` the survival was inactive: 70%.
`CCOc1ccc(NCc2cccn2-c2nnc(N3CCC(C(=O)NCc4ccc(C)cc4)CC3)s2)cc1` was tested, and the survival was inactive: 74%.
For `NC(CSC1CCCCO1)C(=O)O` (configuration not stated), the survival was inactive: 73%.
In the case of `Cc1nnc(N2CCN(c3ccccc3F)CC2)c2c1nnn2Cc1ccccc1Cl`, the survival is reported as inactive: 90%.
For `COc1ccc2nc3oc(C(=O)N(C)c4ccc(Cl)cc4)cc3cc2c1`, the survival was inactive: 85%.
With `CCc1nnc(NC(=O)CSc2nccn2Cc2ccc(F)cc2)s1` the survival was inactive: 131%.
In the case of `COc1ccc(N2CCN(CC(O)COc3ccc(C(C)C)c(C)c3)CC2)cc1` (configuration not stated), the survival is reported as inactive: 66%.
In the case of `COC(=O)C(C)Nc1n[nH]c(=S)[nH]c1=O` (configuration not stated), the survival is reported as inactive: 87%.
`Cc1ccc2c(c1)c(=O)c(C(=O)c1ccncc1)cn2CC(=O)Nc1ccc(C(C)C)cc1` was tested, and the survival was inactive: 82%.
`COc1cccc(NC(=O)Cn2nc3c4ccccc4n(Cc4cccc(F)c4)cc-3c2=O)c1` was tested, and the survival was inactive: 91%.
With `Cc1ccc(N2CC(NC(=O)c3ccc(Br)o3)CC2=O)cc1C` (configuration not stated) the survival was active: 37%.
In the case of `COc1cccc2cc(-c3nnc(-c4ccc(Cl)cc4)o3)c(=O)oc12`, the survival is reported as inactive: 115%.
With `CCc1nn(CC(=O)N2CCN(c3cccc(C(F)(F)F)c3)CC2)c(=O)c2cc3occc3n12` the survival was inactive: 94%.
`Cc1cc(C(F)F)n2ncc(C(=O)NCc3ccccc3)c2n1` was tested, and the survival was inactive: 95%.
`COc1cccc(N2CCN(C(=O)Cn3cnc4onc(-c5ccc(F)cc5)c4c3=O)CC2)c1` was tested, and the survival was inactive: 117%.
In the case of `CCCCCn1c(=O)[nH]c2cc(C(=O)Nc3ccc(OC)c(OC)c3)ccc2c1=O`, the survival is reported as inactive: 66%.
For `COc1cccc(-c2nc(CS(=O)(=O)CC(=O)NCCCN3CCN(C)CC3)c(C)o2)c1`, the survival was inactive: 86%.
With `COc1ccc(CNc2oc(COc3cccc(C)c3)nc2C#N)cc1` the survival was active: 40%.
For `Cn1cc(S(=O)(=O)N2CCCC2)cc1C(=O)Nc1ccc(C(F)(F)F)cc1`, the survival was inactive: 107%.
In the case of `O=C(Nc1ccc(NC(=O)c2ccc(Br)cc2)c(Cl)c1)c1ccc(Br)cc1`, the survival is reported as inactive: 92%.
For `COc1ccc(C(=O)Nc2nc3ccc(S(=O)(=O)N4CCCC4)cc3s2)cc1`, the survival was inactive: 83%.
With `CC(=O)Nc1cccc(NC(=O)C2(c3cccs3)CCOCC2)c1` the survival was inactive: 99%.
In the case of `Cc1ccc(SCc2nc(-c3ccc(C(=O)NCc4ccccc4Cl)cc3)oc2C)cc1`, the survival is reported as inactive: 84%.
`CCOC(=O)CC(=O)CSc1nc2ccccc2c(=O)n1CCc1ccccc1` was tested, and the survival was inactive: 84%.
`COc1cccc(-c2nnc3n(CCc4ccccc4)c(=O)c4ccccc4n23)c1O` was tested, and the survival was inactive: 79%.
`Cn1c(=O)c(=O)n(C)c2cc(N3CCCC3)c(NC(=O)c3ccc(C(C)(C)C)cc3)cc21` was tested, and the survival was inactive: 59%.
With `COc1ccc(C)cc1NC(=O)C1CCCN(S(=O)(=O)c2ccc3c(c2)oc(=O)n3C)C1` (configuration not stated) the survival was inactive: 94%.
`CCOC(CSc1nnc2c3ccccc3n(CC)c2n1)OCC` was tested, and the survival was inactive: 80%.
For `CCOc1ccccc1CNC(=O)CN1C(=O)CCn2nc(-c3cn(C)c4ccccc34)cc21`, the survival was inactive: 66%.
`O=C(c1ccc2c(c1)N(Cc1cccc(Cl)c1)C(=O)c1ccccc1S2(=O)=O)N1CCC(Cc2ccccc2)CC1` was tested, and the survival was inactive: 98%.
`COc1ccc(CNC(=O)c2ccc3c(c2)NC(=O)C(CS(=O)(=O)Cc2ccccc2Cl)N3)cc1` (configuration not stated) was tested, and the survival was inactive: 58%.
`CCc1cccc(CC)c1NC(=O)c1c(C)oc2ccc(O)c(CN3CCOCC3)c12` was tested, and the survival was inactive: 90%.
In the case of `COc1cc(Cl)c(C)cc1Nc1c2c(nc3ccccc13)CCC2`, the survival is reported as inactive: 70%.
For `Cc1nc2ccc(S(=O)(=O)N(CC(=O)Nc3ccc(Cl)cc3)Cc3ccccc3)cc2s1`, the survival was inactive: 58%.
With `CCOC(=O)c1cccc(NS(=O)(=O)c2c(C)nc3sc(C)cn3c2=O)c1` the survival was inactive: 89%.
With `CCc1ccc(NC(=O)C2CCN(S(=O)(=O)c3c(C)noc3/C=C/c3cccs3)CC2)cc1` the survival was inactive: 89%.
With `CC(C)(C)C(=O)N1CCCC(c2nc3c(nnn3Cc3ccc(C(C)(C)C)cc3)c(=O)[nH]2)C1` (configuration not stated) the survival was active: 1%.
`CCn1cc(C(=O)NCCOC)c(=O)c2cc(S(=O)(=O)N3CCOCC3)ccc21` was tested, and the survival was inactive: 82%.
In the case of `Cc1ccc(C(=O)CCCn2nnc(-c3ccncc3)n2)cc1C`, the survival is reported as inactive: 100%.
For `COc1cc(OC)cc(C(=O)Nc2ccc3oc(-c4ccc(Cl)cc4)nc3c2)c1`, the survival was active: 50%.
In the case of `O=C(c1cccc(C(F)(F)F)c1)C1CCN(C(=O)N2CCOCC2)CC1`, the survival is reported as inactive: 103%.
In the case of `CCOC(=O)C1=C(c2ccccc2)Nc2ncnn2C1c1ccc(Cl)cc1` (configuration not stated), the survival is reported as inactive: 83%.
In the case of `O=C(CCC1N=C2c3ccccc3N=C(SCC(=O)Nc3ccccc3F)N2C1=O)NCc1cccs1` (configuration not stated), the survival is reported as inactive: 96%.
`COc1ccc(NC(=O)CN(C)S(=O)(=O)c2ccc3c(c2)CCCN3C(C)=O)cc1Cl` was tested, and the survival was inactive: 90%.
`Cc1cc(Nc2ccc(C(C)C)cc2)nc(-n2nc(C)cc2C)n1` was tested, and the survival was inactive: 90%.
`CC(C)c1nnc(NC(=O)c2ccccc2)s1` was tested, and the survival was inactive: 80%.
In the case of `CCCCCn1c(=N)c(S(=O)(=O)c2ccccc2)cc2c(=O)n3cccc(C)c3nc21`, the survival is reported as inactive: 82%.
`Cc1cccc2sc(N(Cc3cccnc3)C(=O)Cc3ccccc3)nc12` was tested, and the survival was inactive: 81%.
